The text below walks through data of PubChem BioAssay (Tox21).

Each structure is given as a SMILES string. Where “and” joins values, the source holds several entries; their conditions need not be identical. Identical values can stand only once. For some assays here: Most of the hits are listed elsewhere, so they are rarer here than in the full data. Results filed as inconclusive are left out. The source holds several records for some structures; these can differ, active in one and inactive in another. The entries are a selection whose mix differs from that of the whole data set. Calls of active or inactive are those of the source. Calls come from the whole dose curve; as a rule, active = well fitted curve in the direction sought with a large enough effect in the repeat runs; inconclusive = weak or mixed curves; inactive = no such curve, though single readings can be large; an effect the other way counts as inactive or inconclusive.

A short description of test [1]: qHTS assay for identifying genotoxic compounds that show differential cytotoxicity against isogenic chicken DT40 cell lines with known DNA damage response pathways - wild type cell line (AID 743012). Note: nearly all actives have a fitted effect of over 60% in size. Note: potency is the fitted concentration of half-maximal effect. In short, it runs like this:
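Luminescent ATP viability signal (CellTiter-Glo, 30 min RT) recorded after wild type DT40 cells were incubated with compounds for 40 h at 37 C/5% CO2.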

A short description of test [2]: qHTS assay for identifying genotoxic compounds that show differential cytotoxicity against isogenic chicken DT40 cell lines with known DNA damage response pathways - Rad54/Ku70 mutant cell line (AID 743015). Note: nearly all actives have a fitted effect of over 60% in size. Note: potency is the fitted concentration of half-maximal effect. On the technique in general: In qHTS, concentration-response curves come from the screen itself.
For test [3], the target named is Nuclear receptor subfamily 1 group I member 2 (Homo sapiens) (UniProt O75469). Kind of test: CYP3A4 induction through human pregnane X receptor (PXR) by small molecules, qHTS assay (AID 1346984). Note: nearly all actives have a fitted effect of over 40% in size. Particulars: DPX-2 HepG2 PXR, CYP3A4-luciferin luminescence, 24 h; at 46.1 µM (top of the series) unless noted. An outline of the steps: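 Induction measured in HepG2-based DPX-2 cells co-expressing human PXR and a CYP3A4 promoter-driven luciferase. After a 24-hour compound exposure, cells received CYP3A4 luciferin substrate at 3uM final for 3 hours, and light output was then recorded.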

Test [4] deals with Cytochrome P450 2C19 (Homo sapiens) (UniProt P33261). The test can be described thus: Cytochrome P450 Family 2 Subfamily C Member 19 (CYP2C19) small molecule antagonists: luciferase reporter qHTS assay (AID 1671197). Note: nearly all actives have a fitted effect of over 65% in size. Note: potency is the fitted concentration of half-maximal effect. In short, it runs like this: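 First, compounds are pinned into enzyme-substrate mix and held 10 min at room temperature. Second, NADPH regeneration solution is added and plates incubate 1 h at 37C. Third, detection reagent is added and luminescence read after 20 min.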
(In general: A reporter such as luciferase makes a cellular process visible.)

Test [5] concerns the target Cytochrome P450 2C9 (Homo sapiens) (UniProt P11712). Kind of test: Cytochrome P450 Family 2 Subfamily C Member 9 (CYP2C9) small molecule antagonists: luciferase reporter qHTS assay (AID 1671198). Note: nearly all actives have a fitted effect of over 50% in size. Note: potency is the fitted concentration of half-maximal effect. In short, it runs like this:
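CYP2C9 activity was measured with a P450-Glo proluciferin substrate. Enzyme–substrate mix was held with compound for 10 min at room temperature, then NADPH regeneration solution was added for 1 h at 37C. Luciferin product was read as luminescence.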

Test [6] deals with Cytochrome P450 1A2 (Homo sapiens) (UniProt P05177). Kind of test: Cytochrome P450 Family 1 Subfamily A Member 2 (CYP1A2) small molecule antagonists: luciferase reporter qHTS assay (AID 1671199). Note: nearly all actives have a fitted effect of over 50% in size. Particulars: P450-Glo CYP1A2 enzyme, luciferin luminescence, 1 h; at 115 µM (top of the series) unless noted. In short, it runs like this:
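Steps: enzyme-substrate mix dispensed; test compounds and furafylline control pinned in; 10 min room temperature; NADPH regeneration solution added, 1 h; reaction stopped with luciferin detection reagent; luminescence read after 20 min.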

In test [7] the target is Cytochrome P450 3A4 (Homo sapiens) (UniProt P08684). Kind of test: Cytochrome P450 Family 3 Subfamily A Member 4 (CYP3A4) small molecule antagonists: luciferase reporter qHTS assay (AID 1671201). Note: nearly all actives have a fitted effect of over 50% in size. Note: potency is the fitted concentration of half-maximal effect. In short, it runs like this: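 Proluciferin-to-luciferin conversion by CYP3A4, NADPH-regenerated, 1 h RT; luminescence read as RLU. Ketoconazole as control.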
Test [8] addresses Cytochrome P450 2D6 (Homo sapiens) (UniProt P10635). Kind of test: Cytochrome P450 Family 2 Subfamily D Member 6 (CYP2D6) small molecule antagonists: luciferase reporter qHTS assay (AID 1671196). Note: nearly all actives have a fitted effect of over 50% in size. Note: potency is the fitted concentration of half-maximal effect. In short, it runs like this: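 Test chemicals meet CYP2D6 plus proluciferin substrate (10 min, RT); NADPH regenerating solution then drives turnover for 1 h. Detection reagent halts the reaction; luminescence measured after 20 min.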

Test [9] addresses Voltage-gated inwardly rectifying potassium channel KCNH2 (Homo sapiens) (UniProt Q12809). The test can be described thus: Human Ether-a-go-go-Related Gene (hERG) channel small molecule antagonists: fluorescence cell-based qHTS assay (AID 1671200).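 For activity change, negative = inhibition: hERG-expressing U2OS cells given a thallium stimulus after FluxOR II dye loading.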 Note: nearly all actives have a fitted effect of over 50% in size. Note: potency is the fitted concentration of half-maximal effect. In short, it runs like this:
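Kinetic two-minute fluorescence traces, sampled at 1 s, were collected following thallium stimulus of U2OS cells (1000 per well) that had been cultured overnight at 37 C and loaded with FluxOR II.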
% is set by controls: 0 for no effect and ±100 for the full control effect.

UniProt Q12809, sequence (Q12809 whole entry, looked up): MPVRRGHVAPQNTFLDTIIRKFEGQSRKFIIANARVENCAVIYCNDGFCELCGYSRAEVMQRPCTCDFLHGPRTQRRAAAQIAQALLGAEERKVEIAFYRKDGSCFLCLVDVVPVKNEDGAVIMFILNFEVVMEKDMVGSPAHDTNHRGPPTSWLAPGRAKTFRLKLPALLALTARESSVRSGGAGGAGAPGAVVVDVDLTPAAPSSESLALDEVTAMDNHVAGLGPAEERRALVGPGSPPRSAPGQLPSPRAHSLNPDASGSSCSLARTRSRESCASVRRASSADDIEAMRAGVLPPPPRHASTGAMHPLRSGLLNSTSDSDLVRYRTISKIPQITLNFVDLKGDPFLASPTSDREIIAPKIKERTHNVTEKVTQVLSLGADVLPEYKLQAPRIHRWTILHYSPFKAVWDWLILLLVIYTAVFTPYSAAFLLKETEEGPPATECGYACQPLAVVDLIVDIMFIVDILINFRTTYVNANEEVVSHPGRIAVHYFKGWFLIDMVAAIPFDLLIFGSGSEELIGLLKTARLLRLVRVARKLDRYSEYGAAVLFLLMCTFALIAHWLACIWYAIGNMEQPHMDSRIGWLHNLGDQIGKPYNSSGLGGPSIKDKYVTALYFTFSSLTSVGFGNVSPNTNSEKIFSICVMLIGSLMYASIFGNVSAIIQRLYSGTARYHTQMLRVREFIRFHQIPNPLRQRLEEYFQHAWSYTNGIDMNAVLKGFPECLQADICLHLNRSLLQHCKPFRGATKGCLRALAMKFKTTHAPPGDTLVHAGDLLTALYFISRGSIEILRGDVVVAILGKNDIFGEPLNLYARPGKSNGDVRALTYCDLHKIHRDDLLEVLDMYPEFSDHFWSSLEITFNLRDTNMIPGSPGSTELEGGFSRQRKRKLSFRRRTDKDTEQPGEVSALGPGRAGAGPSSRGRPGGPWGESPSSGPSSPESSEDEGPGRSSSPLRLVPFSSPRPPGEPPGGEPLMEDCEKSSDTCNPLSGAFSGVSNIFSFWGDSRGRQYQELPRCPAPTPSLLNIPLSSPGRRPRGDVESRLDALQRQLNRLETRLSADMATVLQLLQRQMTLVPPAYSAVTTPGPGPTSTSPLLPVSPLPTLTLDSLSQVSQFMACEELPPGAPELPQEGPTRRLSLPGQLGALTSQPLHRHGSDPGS
UniProt P08684, sequence (P08684 whole entry, looked up): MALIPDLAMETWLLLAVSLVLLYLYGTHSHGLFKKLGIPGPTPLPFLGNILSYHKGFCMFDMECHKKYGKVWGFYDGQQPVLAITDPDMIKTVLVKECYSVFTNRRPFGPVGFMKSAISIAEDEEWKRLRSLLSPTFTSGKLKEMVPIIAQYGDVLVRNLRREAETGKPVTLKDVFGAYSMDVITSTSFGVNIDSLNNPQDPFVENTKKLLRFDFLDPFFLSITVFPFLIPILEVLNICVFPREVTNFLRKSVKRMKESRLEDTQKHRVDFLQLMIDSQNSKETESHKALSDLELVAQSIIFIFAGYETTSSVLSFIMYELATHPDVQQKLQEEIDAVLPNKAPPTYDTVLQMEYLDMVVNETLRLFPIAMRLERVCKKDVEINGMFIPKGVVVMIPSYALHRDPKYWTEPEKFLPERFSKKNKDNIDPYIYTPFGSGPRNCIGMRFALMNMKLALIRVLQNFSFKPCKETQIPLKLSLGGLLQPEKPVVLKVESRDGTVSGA
UniProt P11712, sequence (P11712 whole entry, looked up): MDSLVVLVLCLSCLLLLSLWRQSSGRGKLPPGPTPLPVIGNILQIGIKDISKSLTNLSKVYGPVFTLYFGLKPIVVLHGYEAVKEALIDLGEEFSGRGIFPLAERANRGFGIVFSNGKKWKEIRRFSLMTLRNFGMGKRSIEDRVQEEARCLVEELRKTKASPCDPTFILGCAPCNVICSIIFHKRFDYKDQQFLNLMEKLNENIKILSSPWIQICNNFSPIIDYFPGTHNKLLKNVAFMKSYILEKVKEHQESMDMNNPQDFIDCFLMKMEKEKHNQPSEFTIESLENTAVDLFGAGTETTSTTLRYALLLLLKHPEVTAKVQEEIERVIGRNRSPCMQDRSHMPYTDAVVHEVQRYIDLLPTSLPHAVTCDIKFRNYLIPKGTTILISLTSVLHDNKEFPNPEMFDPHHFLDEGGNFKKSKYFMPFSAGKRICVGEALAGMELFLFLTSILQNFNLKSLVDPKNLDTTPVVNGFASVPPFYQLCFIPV
UniProt P33261, sequence (P33261 whole entry, looked up): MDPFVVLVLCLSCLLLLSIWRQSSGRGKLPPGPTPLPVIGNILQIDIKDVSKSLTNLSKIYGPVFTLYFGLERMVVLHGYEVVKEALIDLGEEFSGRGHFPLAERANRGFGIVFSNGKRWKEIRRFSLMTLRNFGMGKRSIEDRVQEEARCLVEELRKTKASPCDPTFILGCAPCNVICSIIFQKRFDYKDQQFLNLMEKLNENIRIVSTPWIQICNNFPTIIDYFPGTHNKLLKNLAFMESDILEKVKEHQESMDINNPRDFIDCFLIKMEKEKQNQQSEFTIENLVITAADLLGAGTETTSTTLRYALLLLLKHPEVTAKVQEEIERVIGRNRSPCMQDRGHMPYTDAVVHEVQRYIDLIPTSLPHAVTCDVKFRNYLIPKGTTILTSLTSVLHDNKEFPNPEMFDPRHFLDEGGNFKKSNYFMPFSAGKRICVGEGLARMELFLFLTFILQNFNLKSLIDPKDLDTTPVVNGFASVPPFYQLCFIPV
UniProt P05177, sequence (P05177 whole entry, looked up): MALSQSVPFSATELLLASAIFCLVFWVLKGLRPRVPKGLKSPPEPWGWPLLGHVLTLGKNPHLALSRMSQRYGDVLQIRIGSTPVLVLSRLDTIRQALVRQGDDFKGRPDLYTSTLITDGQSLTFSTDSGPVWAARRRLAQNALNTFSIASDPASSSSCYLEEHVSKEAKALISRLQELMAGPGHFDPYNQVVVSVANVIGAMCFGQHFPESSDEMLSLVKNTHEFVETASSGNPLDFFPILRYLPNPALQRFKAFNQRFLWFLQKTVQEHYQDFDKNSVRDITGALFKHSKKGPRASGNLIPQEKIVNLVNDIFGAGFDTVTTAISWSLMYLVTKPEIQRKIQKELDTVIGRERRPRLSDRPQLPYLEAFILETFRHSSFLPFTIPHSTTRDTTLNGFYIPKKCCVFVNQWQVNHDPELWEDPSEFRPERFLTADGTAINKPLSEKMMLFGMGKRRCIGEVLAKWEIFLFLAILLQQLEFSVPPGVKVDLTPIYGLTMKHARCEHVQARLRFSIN
UniProt P10635, sequence (P10635 whole entry, looked up): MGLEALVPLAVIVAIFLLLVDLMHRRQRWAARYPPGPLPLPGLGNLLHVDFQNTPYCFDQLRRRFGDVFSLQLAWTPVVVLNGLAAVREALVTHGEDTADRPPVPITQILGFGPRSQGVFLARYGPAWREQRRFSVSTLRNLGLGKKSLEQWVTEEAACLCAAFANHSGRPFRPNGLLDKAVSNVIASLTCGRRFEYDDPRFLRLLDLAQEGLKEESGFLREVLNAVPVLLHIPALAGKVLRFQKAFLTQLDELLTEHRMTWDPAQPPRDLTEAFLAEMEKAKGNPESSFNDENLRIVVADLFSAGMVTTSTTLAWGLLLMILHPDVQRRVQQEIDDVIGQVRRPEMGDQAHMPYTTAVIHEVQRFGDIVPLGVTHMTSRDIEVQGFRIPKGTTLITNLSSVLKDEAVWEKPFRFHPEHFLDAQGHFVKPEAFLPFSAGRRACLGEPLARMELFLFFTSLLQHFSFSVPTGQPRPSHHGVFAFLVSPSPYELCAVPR

Take `NCCC[C@H](N)C(=O)O`: the Potency entry in test [1] and in [2] was “inactive” throughout.
As for `COCC(=O)Nc1cc(Sc2ccccc2)ccc1N=C(NC(=O)OC)NC(=O)OC`, the Potency in test [1] was active: 21.1 µM; in [2], active: 26.6 µM. In test [3], the activation was inactive: -4.42%.
On the same counts, the results for `CC(C)(CO)[C@@H](O)C(=O)NCCC(=O)NCCSSCCNC(=O)CCNC(=O)[C@H](O)C(C)(C)CO` are “inactive”, “inactive” and inactive: -2.15%.
Regarding `COc1cc2c(cc1OC)C(=O)C(CC1CCN(Cc3ccccc3)CC1)C2` (centres undefined), the Potency was active: 3.76 µM in test [1] and active: 4.22 µM in test [2]. Besides, the Potency entry in [4], in test [5] and in test [7] was “inactive” in each case. The activity change, negative = inhibition in test [6] is inactive: 1.04% [at 53 µM].
With `Nc1nc2ccc(OC(F)(F)F)cc2s1`, the Potency result in test [1], in [2], in test [8], in test [9] and in test [7] was “inactive” throughout. For the same compound, the Potency in test [4] was active: 38.9 µM.
For `NC(N)=NCCN1CCCCCCC1`, the Potency result in test [1] and in test [2] was “inactive” throughout. The activity change, negative = inhibition in test [9] is inactive: -2.31% [at 0.29 µM].
With `CCCCC(=O)OCC(=O)[C@H]1[C@H](C)C[C@H]2[C@@H]3C[C@H](F)C4=CC(=O)C=C[C@]4(C)[C@@]3(F)[C@@H](O)C[C@@]21C`, the Potency in [1] was active: 26.6 µM; in test [2], active: 26.6 µM; in test [4], active: 24.5 µM; in [5], active: 8.71 µM. In [6], the activity change, negative = inhibition is inactive: -16.5% [at 53 µM].
On to `NC(=O)NNc1ccccc1`, for which the Potency result in test [1], in [2] and in test [9] was “inactive” each time.
Turning to `O=C1OCCN1/N=C/c1ccc([N+](=O)[O-])o1`, the Potency in [2] is active: 23.7 µM. Also, in test [3], the activation was inactive: -13.4%. Besides, the Potency result in test [8], in test [5], in test [9] and in [7] was “inactive” throughout. Moreover, in [6], the activity change, negative = inhibition was inactive: 0.999% [at 53 µM].
On to `COC(=O)C1=C(C)NC(C)=C(C(=O)OC)C1c1ccccc1[N+](=O)[O-]`, for which the Potency in test [1] is active: 21.1 µM and active: 19.4 µM; in test [2], active: 21.7 µM. Further, the Potency entry in test [8] and in [9] was “inactive” each time.
Turning to `Cc1cccc(N)n1`, the Potency entry in test [1], in [2], in test [8], in test [4], in test [9] and in test [7] was “inactive” in each case. Moreover, the activity change, negative = inhibition in test [6] was inactive: -13.9%.
On to `Cc1cc(/C=C/c2ccc3cc(N(C)C)ccc3[n+]2C)c(C)n1-c1ccccc1`, for which the values for the Potency in [1] and in test [2] were active: 0.254 µM and active: 0.285 µM, respectively. For the same compound, in test [3], the activation was inactive: -11.6% [at 20.6 µM].
Consider `CCC[C@@H]1C[C@@H](C(=O)N[C@@H]([C@H]2O[C@H](SC)[C@H](O)[C@@H](O)[C@H]2O)[C@H](C)Cl)N(C)C1`, for which the Potency result in test [1] and in test [2] was “inactive” in each case.
For the compound `CCn1cc(C(=O)O)c(=O)c2cc(F)c(N3CCN(C)CC3)cc21`, the Potency in test [1] is active: 11.9 µM; in test [2], active: 23.7 µM. Further, in [3], the activation was inactive: -5.08%. Also, the Potency result in [8], in test [5] and in test [7] was “inactive” each time. For the same compound, the results for the activity change, negative = inhibition in test [4] and in test [6] were inactive: 39.8% [at 23.6 µM] and inactive: 12% [at 23.6 µM], respectively.
For the compound `CC(C)CC(=O)O`, the Potency result in [1], in test [2], in test [5], in [9] and in [7] was “inactive” each time. In addition, the Potency in test [8] and in test [4] was active: 69.4 µM throughout. For the same compound, the activity change, negative = inhibition in [6] is inactive: -18.3%.
In the case of `CCC(C)(CN(C)C)OC(=O)c1ccccc1` (centres undefined), the Potency entry in test [1], in test [2] and in [9] was “inactive” in each case.
For the compound `CS(=O)(=O)c1ccc([C@@H](C[C@H]2CCC(=O)C2)C(=O)Nc2cnccn2)cc1Cl`, the Potency result in test [1], in test [2], in [8] and in [4] was “inactive” each time. Besides, the activity change, negative = inhibition in test [6] was inactive: -10.3%. Further, in [9], the Potency is active: 11 µM.
As to `CO[Si](C)(C)OC`, the Potency result in test [1], in test [2], in test [8], in test [4], in [5] and in test [9] was “inactive” in each case. Further, the activity change, negative = inhibition in [6] is inactive: -29.3%. Besides, in test [7], the Potency is active: 39.9 µM.
In the case of `C[C@@H]1C[C@H]2[C@@H]3C[C@H](F)C4=CC(=O)C=C[C@]4(C)[C@@]3(F)[C@@H](O)C[C@]2(C)[C@@]1(O)C(=O)CO`, the Potency entry in test [1] and in test [9] was “inactive” throughout.
